Laboratory results taken from paper PMC4336329 (PLoS ONE, 2015).
Screen size: about 310,000 compounds; about 14,000 (4.5%) showed an effect of 50% or more. Effects have a minus sign here. The list shows a part of the results.

Molecular target: human ether-à-go-go-related gene (hERG) potassium channel (human, UniProt Q12809)
Test: primary screen, population patch clamp on CHO cells stably expressing hERG
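Note: peak tail current of the secondary pulse compared with the same well before compound.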

Chain of human ether-à-go-go-related gene (hERG) potassium channel (Q12809 whole entry, looked up): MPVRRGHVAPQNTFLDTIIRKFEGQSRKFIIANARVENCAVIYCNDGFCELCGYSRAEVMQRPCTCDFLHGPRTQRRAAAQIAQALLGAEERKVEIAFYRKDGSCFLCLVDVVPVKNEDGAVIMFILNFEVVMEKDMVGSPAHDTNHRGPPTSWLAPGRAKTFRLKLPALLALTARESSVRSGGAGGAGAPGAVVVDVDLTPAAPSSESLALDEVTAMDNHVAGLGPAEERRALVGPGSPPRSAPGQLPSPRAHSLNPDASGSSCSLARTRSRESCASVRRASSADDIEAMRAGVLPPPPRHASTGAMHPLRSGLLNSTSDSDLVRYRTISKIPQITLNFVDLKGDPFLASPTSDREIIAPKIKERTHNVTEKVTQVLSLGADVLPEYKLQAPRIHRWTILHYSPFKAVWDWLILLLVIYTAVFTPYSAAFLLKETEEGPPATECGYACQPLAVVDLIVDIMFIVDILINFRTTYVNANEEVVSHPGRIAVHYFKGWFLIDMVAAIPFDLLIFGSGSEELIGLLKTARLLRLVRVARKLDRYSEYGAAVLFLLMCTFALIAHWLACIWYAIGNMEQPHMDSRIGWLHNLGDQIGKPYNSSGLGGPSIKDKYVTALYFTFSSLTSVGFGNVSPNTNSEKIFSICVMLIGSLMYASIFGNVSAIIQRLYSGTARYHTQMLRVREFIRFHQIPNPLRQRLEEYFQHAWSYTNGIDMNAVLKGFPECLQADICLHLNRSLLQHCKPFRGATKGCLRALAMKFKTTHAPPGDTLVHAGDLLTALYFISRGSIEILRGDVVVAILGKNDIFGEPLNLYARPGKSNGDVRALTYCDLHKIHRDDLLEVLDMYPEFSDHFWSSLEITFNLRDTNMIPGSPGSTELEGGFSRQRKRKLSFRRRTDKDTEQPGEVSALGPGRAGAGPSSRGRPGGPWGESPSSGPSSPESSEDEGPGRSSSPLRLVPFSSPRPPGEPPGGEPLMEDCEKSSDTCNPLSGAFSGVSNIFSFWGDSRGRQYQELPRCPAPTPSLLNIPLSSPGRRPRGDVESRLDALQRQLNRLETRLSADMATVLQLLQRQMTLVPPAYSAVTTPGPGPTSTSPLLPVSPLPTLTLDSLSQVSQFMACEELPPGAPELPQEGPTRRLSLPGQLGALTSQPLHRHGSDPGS

SMILES	hERG current change (%, negative = inhibition) at 10uM
CN(C)c1cccc(C(=O)Nc2cccc(S(=O)(=O)NC3=NCCC3)c2)c1	14.3%
CC(C)NC(=S)NN=C1c2ccccc2-c2ccccc21	10.6%
CCOc1ccc(NS(=O)(=O)c2cc3c(cc2C)N(C)CCO3)cc1	4.24%
Cc1ccc(Cl)cc1NS(=O)(=O)Cc1ccccc1	-17.4%
COCc1ccc(CN2CCCC(C(=O)Nc3ccc(-c4cscn4)cc3)C2)o1 (stereo not drawn)	-8.25%
CN(c1ccc([N+](=O)[O-])cc1C(=O)Nc1ccccc1)C1CCCCC1	-9.36%
O=C(NCCSc1ccccn1)c1ccc(Cl)cc1	-10.4%
CC(C)C(NC(=O)c1ccco1)C(=O)NCC(c1ccco1)N(C)C (stereo not drawn)	12.5%
COc1ccc(-n2c(SCC(=O)NCc3cccs3)nnc2-c2ccoc2C)cc1	-78%
Cc1cc(C(=O)NNC(=S)NCc2ccco2)nn1C	19.1%
O=C(Cn1nnc(-c2ccccc2-n2cnnn2)n1)c1ccccc1	-3.97%
COc1cccc(C2=CC(=O)CC(C)(C)C2)c1	2.16%
CCOc1ccc2ccccc2c1/C=N\NC(=O)c1ccc([N+](=O)[O-])cc1	8.5%
Cc1ccc(S(=O)(=O)N2CCCOC2CNC(=O)C(=O)NCCC2=CCCCC2)cc1 (stereo not drawn)	11%
COc1cc(/C=N/NC(=O)CCc2c(C)n[nH]c2C)cc(OC)c1OC	15.6%
CN1CCc2c(sc3c2c(=O)n(-c2ccc(Cl)cc2)c2nncn32)C1	4.11%
Cc1ccc(C(=O)Nc2nnc(S(=O)(=O)N3CCC(C)CC3)s2)cc1	21.8%
O=C(CCC(=O)N1CCN(S(=O)(=O)c2ccc3ccccc3c2)CC1)Nc1cc(Cl)cc(Cl)c1	8.53%
COC(=O)N/N=C(C)\C=C\c1ccco1	19%
C=CCN(C(=O)CNS(=O)(=O)c1ccccc1)C(C(=O)NCCOC)c1ccncc1 (stereo not drawn)	17.4%
COc1ccc(C2CCCN2C(=S)Nc2cccc(Cl)c2C)cc1OC (stereo not drawn)	-10.2%
COc1ccc(N(CC(=O)NN=C2CCN(C)CC2)S(=O)(=O)c2ccc(NC(C)=O)cc2)cc1	15.1%

SMILES	hERG current change (%, negative = inhibition) at 10uM
CC1(c2nnc(Cc3ccccc3)o2)CC(c2ccccc2F)=NO1 (stereo not drawn)	-12.6%
O=C(O)COc1ccc(Cl)cc1Cl	7.53%
Cc1cc(=O)c(C(=O)OC(C)C(=O)NC(N)=O)nn1-c1ccc(Cl)cc1 (stereo not drawn)	36.4%
O=[N+]([O-])c1ccc(NNC(=S)Nc2ccccc2)cc1	-0.446%
CCOc1ccc(-c2nnc3ccc(SCC(=O)Nc4cc(C)on4)nn23)cc1	-9.97%
Cc1c(NC(=O)CCSc2ccc(Cl)cc2)c(=O)n(-c2ccccc2)n1C	-24.9%
C[C@H](NC(=O)c1ccc(Cl)cc1)C(=O)NCCc1ccc(S(N)(=O)=O)cc1	5.4%
Cc1nc(N2CCOCC2)nc(N2CCCCC2)c1[N+](=O)[O-]	10.2%
O=C(N/N=C/c1ccc[nH]1)c1ccc(Cl)cc1	-11.8%
COc1ccc(C(=O)N/N=C(\Cc2ncc[nH]2)c2ccccc2)cc1	2.43%
CC(=O)O.COc1c(O)ccc(C2NC(=O)NC(C)=C2C(=O)Nc2ccccc2C)c1[N+](=O)[O-] (stereo not drawn)	31.9%
Cc1cc(O)cc2c(=O)c3ccccc3sc12	7.03%
CN(C)C(=O)CN1C(=O)NC2(CCc3ccccc32)C1=O (stereo not drawn)	16.7%
CC(OC(=O)C1CC=CCC1C(N)=O)C(Cl)=C(Cl)Cl (stereo not drawn)	12.5%
CC1=C(C(=O)OCC(C)C)C(c2cccs2)NC(=S)N1 (stereo not drawn)	8.13%
CCOC(=O)c1sc(=S)n(-c2ccccc2)c1N(C(C)=O)C(C)=O	27.1%
C=CCn1c(SCC(=O)Nc2ccc(C(=O)OCC)cc2)nnc1-c1cccs1	16.7%
CN(CC(=O)NCc1ccccc1)CC(=O)Nc1ccc(Cl)c(C(F)(F)F)c1	-17.3%
COCCCn1c(SCc2nnc(-c3ccc(OC)c(OC)c3)o2)nnc1-c1ccncc1	-4.8%
C(=N\Nc1nnnn1-c1ccccc1)/c1ccncc1	6.33%
O=[N+]([O-])c1cccc(-c2cn3nc(-c4ccccc4)c(-c4ccccc4)nc3n2)c1	-9.43%
CCCCN(CC)C(=O)c1cccc(Cl)c1	13.1%

SMILES	hERG current change (%, negative = inhibition) at 10uM
Cc1nonc1OCCNCc1c(C(=O)N2CCCCCCC2)nc2ccc(Cl)cn12	-3.58%
COC(=O)c1ccc(CSc2nnc(Nc3cccc(OC)c3)s2)o1	3.75%
O=c1[nH]c(CSc2ncc(C(F)(F)F)cc2Cl)nc2ccccc12	23.8%
O=C(CCC(=O)N1CCCCCC1)NCc1ccc(F)cc1	-5.94%
Cc1cc(N)ccc1-c1cc2ccccc2oc1=O	14.5%
CCCOC(=O)C1C2C=CC3(CN(c4ccc(Cl)c(F)c4)C(=O)C13)O2 (stereo not drawn)	-6.99%
Cc1ccccc1C1NC(=S)NC2=C1C(=O)CCC2 (stereo not drawn)	3.09%
Cc1cccnc1-n1c(-c2ccco2)nc2ccccc2c1=O	8.61%
COC(=O)c1cc(C(=O)N2CCN(c3ccccc3OC)CC2)cc([N+](=O)[O-])c1	-34.7%
Cc1ccc2nc(N3CCN(c4cccc(C)c4C)CC3)c3nnnn3c2c1	14.4%
CCc1nc2nc(C)c(NS(=O)(=O)c3ccc(Cl)cc3)c(=O)n2[nH]1	14.7%
O=C(NCCN1CCOCC1)c1cc2sccc2n1Cc1ccc(Cl)cc1	-59.9%
Cc1ccnc(NS(=O)(=O)c2ccc(NC(=O)C(C)(C)C)cc2)n1	4.11%
COc1ccc(-c2ccc(C(=O)O)o2)c([N+](=O)[O-])c1	15.2%
FC(F)(F)c1ccc(Cl)c(-n2c(-c3ccco3)n[nH]c2=S)c1	22.2%
Cc1nc(C(=O)Nc2ccccc2)sc1C1(C)CC(c2cccnc2)=NO1 (stereo not drawn)	-13.7%
COc1ccc(C(=O)NC(=S)Nc2ccc([N+](=O)[O-])cc2C)cc1OC	-10.6%
CC(C)(C)c1ccc(C(=O)Nc2ccc(NC(=O)c3ccco3)cc2)cc1	1.84%
Cc1c(CC(=O)N2CCN(C(=O)C3COc4ccccc4O3)CC2)c(=O)oc2cc(O)c(Cl)cc12 (stereo not drawn)	-52.4%
O=c1[nH]c(=S)n(-c2ccccc2Cl)c(O)c1C=NCCN1CCNCC1	16.1%
COc1ccc(C(=O)NCCS(=O)(=O)NCc2ccco2)cc1	10.8%
C=CCN(c1ccccc1)S(=O)(=O)c1cccc(C(=O)NCC(c2ccc(F)cc2)N2CCOCC2)c1 (stereo not drawn)	-29.6%

SMILES	hERG current change (%, negative = inhibition) at 10uM
COc1ccccc1Nc1nc(N(C)c2ccccc2)nc(N)c1[N+](=O)[O-]	14.4%
CCCNC(=O)Cn1cnc2sc(C(=O)N3CCC4(CC3)OCCO4)c(C)c2c1=O	13.9%
Cc1ccccc1Nc1nnc(SCc2cc(=O)n3ccsc3n2)s1	-22.9%
CCOC(=O)c1cc(-c2ccccc2)nc2c1c(C)nn2-c1ccccn1	-6.42%
O=C1S/C(=C\c2ccc(N3CCOCC3)o2)C(=O)N1Cc1c(F)cccc1Cl	0.112%
CCOC(=O)c1sc(NC(=S)NC(=O)C2CC2)cc1C	10.9%
COc1cc2c(=O)n(Cc3ccccc3)c(=O)n(CC(=O)C(C)(C)C)c2cc1OC	13.8%
CCCCn1c(C(C)O)nc2ccccc21 (stereo not drawn)	11%
COc1ccc(/C=C/c2ccccc2)cc1[C@H]1[C@@H]2C=CCC[C@@]2(C)C(=O)N1Cc1ccccc1	10.4%
CCCN1C(=O)/C(=C/c2ccc(N3CCOCC3)cc2)NC1=S	3.78%
CCOc1ccc(NC(=O)c2ccc(CC)s2)c([N+](=O)[O-])c1	33.4%
Cc1cc(C)cc(NC(=O)CCCN2C(=O)C(c3ccccc3)Oc3cccnc32)c1 (stereo not drawn)	-1.03%
COC(=O)c1cc(CN2CCN(c3ccccc3C)CC2)ccc1O.Cl	-16.4%
N=C1/C(=C\c2ccc(SCc3ccccc3)o2)C(=O)N=C2SC=NN12	29.2%
Oc1c(-c2cc(-c3ccco3)[nH]n2)ccc2ccccc12	13.7%
O=C(N/N=C/c1ccco1)c1cnccn1	7.7%
O=C(Nc1ccccn1)c1nc(-c2ccccc2)n(-c2ccccc2)n1	-4.87%
c1ccc(SCc2nc(-c3ccccn3)no2)cc1	-7%
O=C(C1CCCN(Cc2ccc3c(c2)OCO3)C1)N1CCCC1.O=C(O)C(=O)O (stereo not drawn)	9.26%
CCOC(=O)c1cc(C(=O)c2ccccc2O)cn2c(=O)c3c(C)c(C)sc3nc12	18.7%
C=C[C@@]1(C)CC(=O)[C@]2(O)[C@@]3(C)[C@@H](O)CCC(C)(C)[C@@H]3[C@H](O)[C@H](OC(C)=O)[C@@]2(C)O1	0.151%
